# Measured values: patent US11149300B1, “Methods of treating gastrointestinal malignancies” (Cedars-Sinai Medical Center, priority 2018, dated 2021)
# Like-named read-outs stand apart in the source and are kept apart here.
# Columns and labels:
# hERG [1] = target: T1, hERG (Homo sapiens, UniProt Q12809); experiment: hERG current block
# [2] = monkey, 5 μM; cited from earlier work
# [3] = 3-30 mg/kg PO; cited from earlier work
# [4] = rat, 5 μM; cited from earlier work
# [5] = physiological pH; cited from earlier work
# [6] = human, 5 μM; cited from earlier work
# [7] = system: human H1, human 5-HT1A and human 5-HT7 sites; settings: range over the three sites; cited from earlier work
# hERG [8] = target: T1, hERG; settings: read-out: IC50, hERG current; cited from earlier work
# major human CYPs = settings: in vitro; cited from earlier work
# tumor models = settings: cited from earlier work
# [9] = projection and simulation of human PK and QTc
# C-41 cells = settings: AlamarBlue cell survival; cited from earlier work
# human H1 = human H1 (Homo sapiens, UniProt P35367); settings: 10 μM (2.4 μg/mL); cited from earlier work
# Sequence of UniProt P35367 (P35367 whole entry): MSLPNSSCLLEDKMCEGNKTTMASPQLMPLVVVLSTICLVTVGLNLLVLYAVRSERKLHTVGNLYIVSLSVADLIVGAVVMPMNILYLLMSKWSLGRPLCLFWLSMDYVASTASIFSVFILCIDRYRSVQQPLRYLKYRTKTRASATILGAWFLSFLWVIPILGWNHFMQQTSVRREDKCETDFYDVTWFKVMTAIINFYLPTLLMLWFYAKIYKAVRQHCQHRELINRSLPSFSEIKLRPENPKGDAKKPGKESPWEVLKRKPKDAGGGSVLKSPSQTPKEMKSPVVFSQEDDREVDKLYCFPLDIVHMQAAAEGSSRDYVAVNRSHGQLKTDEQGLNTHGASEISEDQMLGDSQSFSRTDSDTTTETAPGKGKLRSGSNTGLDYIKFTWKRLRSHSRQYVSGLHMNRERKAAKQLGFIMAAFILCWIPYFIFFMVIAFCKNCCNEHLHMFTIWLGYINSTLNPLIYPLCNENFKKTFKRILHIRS
# [10] = cited from earlier work
# PARP = settings: read-out: EC50, inhibition of H2O2-induced poly(ADP-ribosyl)ation; C-41 cervical carcinoma cells; cited from earlier work
# [11] = cited from earlier work; remark: listed apart in the source
# [12] = repeated dose (2-week) toxicology study; settings: Cmax 0.21 μg/mL
# [13] = in vitro action potential duration (repolarization); settings: at 0.42 μg/mL
# [14] = mouse, 5 μM; cited from earlier work
# [15] = cited from earlier work; remark: listed apart in the source
# [16] = 0.42 μg/mL; cited from earlier work
# [17] = Phase I VelGemRad trial, MTD, DLT and safety
# [18] = parenteral, with cytotoxic therapy
# T1 sequence (Q12809 whole entry): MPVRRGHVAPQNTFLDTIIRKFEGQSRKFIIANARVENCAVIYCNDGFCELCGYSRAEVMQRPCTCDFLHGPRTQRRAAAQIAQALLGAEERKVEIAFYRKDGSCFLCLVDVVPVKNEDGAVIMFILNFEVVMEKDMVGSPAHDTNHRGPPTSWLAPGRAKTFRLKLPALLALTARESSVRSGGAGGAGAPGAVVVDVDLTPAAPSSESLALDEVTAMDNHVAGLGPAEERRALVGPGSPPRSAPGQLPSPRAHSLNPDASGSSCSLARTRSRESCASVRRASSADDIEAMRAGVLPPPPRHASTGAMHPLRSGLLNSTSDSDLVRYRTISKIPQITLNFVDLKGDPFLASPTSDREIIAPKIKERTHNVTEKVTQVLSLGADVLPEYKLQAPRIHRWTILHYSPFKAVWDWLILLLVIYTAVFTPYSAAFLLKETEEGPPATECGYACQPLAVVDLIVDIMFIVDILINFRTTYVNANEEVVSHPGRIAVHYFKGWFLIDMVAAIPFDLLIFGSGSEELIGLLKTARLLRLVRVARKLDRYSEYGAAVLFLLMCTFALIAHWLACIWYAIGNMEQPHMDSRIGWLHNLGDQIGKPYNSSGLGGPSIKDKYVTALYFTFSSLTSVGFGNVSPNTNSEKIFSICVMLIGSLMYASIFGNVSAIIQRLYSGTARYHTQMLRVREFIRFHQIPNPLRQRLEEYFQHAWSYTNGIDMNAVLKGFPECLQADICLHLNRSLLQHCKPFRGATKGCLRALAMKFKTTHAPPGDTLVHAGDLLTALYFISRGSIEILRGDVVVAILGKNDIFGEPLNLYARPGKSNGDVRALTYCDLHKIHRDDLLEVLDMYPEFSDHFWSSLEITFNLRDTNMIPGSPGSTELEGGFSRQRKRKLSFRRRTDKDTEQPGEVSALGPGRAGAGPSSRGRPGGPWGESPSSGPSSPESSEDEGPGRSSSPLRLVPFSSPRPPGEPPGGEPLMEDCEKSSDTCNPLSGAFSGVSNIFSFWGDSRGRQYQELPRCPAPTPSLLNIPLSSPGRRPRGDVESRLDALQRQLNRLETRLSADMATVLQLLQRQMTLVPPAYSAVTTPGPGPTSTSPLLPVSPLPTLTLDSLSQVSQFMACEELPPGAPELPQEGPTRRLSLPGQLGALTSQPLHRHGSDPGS
compound,measurement,setting,value
C[C@]1(c2nc3c(C(N)=O)cccc3[nH]2)CCCN1 [veliparib],hERG IC50 as multiple of predicted clinical Cmax,hERG [1],278 fold
same,"protein binding in plasma, % bound",[2],41%
same,CNS effects,[3],did not display clear adverse CNS effects
same,"protein binding in plasma, % bound",[4],49%
same,solubility,[5],high
same,"protein binding in plasma, % bound",[6],51%
same,IC50,[7],1.2 to 5.3 µM
same,IC50,hERG [8],236 µM
same,inhibition of major human CYPs,major human CYPs,not a potent inhibitor
same,toxicity at supratherapeutic dose,tumor models; 50 mg/kg/day via osmotic minipump,skin toxicity at the pump implantation site
same,dose giving significant potentiation,"tumor models; PO, divided twice daily",3.1 mg/kg/day
same,dose of maximal potentiation,tumor models; PO,approximately 25 mg/kg/day
same,AUC at maximally efficacious Css,tumor models; continuous infusion,1700 ng·h/mL
same,Css (plasma concentration at steady-state) that was maximally efficacious,tumor models; continuous infusion,70 ng/mL
same,time plasma concentration above 70 ng/mL,"tumor models; oral 25 mg/kg/day, divided twice daily",2-4 hours per dose
same,toxicity at efficacious doses,"tumor models; parenteral or PO, up to maximally efficacious doses",No increased toxicity
same,dose of maximal efficacy,tumor models; [18],approximately 12.5 mg/kg/day
same,lowest dose with significant efficacy,tumor models; [18],1 mg/kg/day
same,predicted clinical Cmax,[9],210 ng/mL
same,predicted human t1/2,[9],~4 h
same,projected human CL,[9]; allometric scaling,26 L/h
same,maximal potentiation of temozolomide cytotoxicity,C-41 cells,approximately 15 fold
same,displacement of control-specific binding,human H1,61%
same,route of clearance,[10]; rats and dogs,cleared primarily in the urine as intact parent drug
same,dose (total radioactivity) recovered,[10]; within 24 hours post-dose,> 80%
same,EC50,PARP,0.0024 µM
same,oral bioavailability (F),[11]; all species,> 50%
same,volume of distribution (Vss),[11]; all species,> 2.0 L/kg
same,terminal elimination t1/2,[11]; range over species,1.2 to 2.7 h
same,"multiple of predicted clinical Cmax, dogs with seizures",[12],26 fold
same,multiple of predicted clinical Cmax,[13],2 fold
same,"protein binding in plasma, % bound",[14],43%
same,bioavailability from a non-formulated capsule,[15]; fasted dogs,59.7%
same,bioavailability from a non-formulated capsule,[15]; non-fasted dogs,65.5%
same,effect on repolarization (action potential duration),[16],no effect
same,"DLT lymphopenia, share of patients with DLT",[17]; 12 patients with DLT,83.3%
same,"DLT neutropenia, febrile neutropenia, abdominal infection, abdominal pain, hyponatremia, leukopenia, share each",[17]; 12 patients with DLT,8.3%
same,maximum tolerated dose (MTD),[17]; with gemcitabine 400 mg/m^2 and RT 36 Gy/15,40 mg BID
same,most frequent grade >/=3 AEs,[17]; with gemcitabine and IMRT,"lymphocyte count decreased, hyperglycemia, and anemia"
same,tolerability of the combination,[17]; with gemcitabine and IMRT,well tolerated
